Test results taken from publication PMC4336329 (PLoS ONE, 2015).
Among all 310,000 compounds or so, about 2,200 (0.71%) showed an effect of 50% or more. Effects have a minus sign here. The list shows a part of the results.

Target: human ether-à-go-go-related gene (hERG) potassium channel (human, UniProt Q12809)
Assay: primary screen, population patch clamp on CHO cells stably expressing hERG

human ether-à-go-go-related gene (hERG) potassium channel, sequence (Q12809 whole entry, looked up): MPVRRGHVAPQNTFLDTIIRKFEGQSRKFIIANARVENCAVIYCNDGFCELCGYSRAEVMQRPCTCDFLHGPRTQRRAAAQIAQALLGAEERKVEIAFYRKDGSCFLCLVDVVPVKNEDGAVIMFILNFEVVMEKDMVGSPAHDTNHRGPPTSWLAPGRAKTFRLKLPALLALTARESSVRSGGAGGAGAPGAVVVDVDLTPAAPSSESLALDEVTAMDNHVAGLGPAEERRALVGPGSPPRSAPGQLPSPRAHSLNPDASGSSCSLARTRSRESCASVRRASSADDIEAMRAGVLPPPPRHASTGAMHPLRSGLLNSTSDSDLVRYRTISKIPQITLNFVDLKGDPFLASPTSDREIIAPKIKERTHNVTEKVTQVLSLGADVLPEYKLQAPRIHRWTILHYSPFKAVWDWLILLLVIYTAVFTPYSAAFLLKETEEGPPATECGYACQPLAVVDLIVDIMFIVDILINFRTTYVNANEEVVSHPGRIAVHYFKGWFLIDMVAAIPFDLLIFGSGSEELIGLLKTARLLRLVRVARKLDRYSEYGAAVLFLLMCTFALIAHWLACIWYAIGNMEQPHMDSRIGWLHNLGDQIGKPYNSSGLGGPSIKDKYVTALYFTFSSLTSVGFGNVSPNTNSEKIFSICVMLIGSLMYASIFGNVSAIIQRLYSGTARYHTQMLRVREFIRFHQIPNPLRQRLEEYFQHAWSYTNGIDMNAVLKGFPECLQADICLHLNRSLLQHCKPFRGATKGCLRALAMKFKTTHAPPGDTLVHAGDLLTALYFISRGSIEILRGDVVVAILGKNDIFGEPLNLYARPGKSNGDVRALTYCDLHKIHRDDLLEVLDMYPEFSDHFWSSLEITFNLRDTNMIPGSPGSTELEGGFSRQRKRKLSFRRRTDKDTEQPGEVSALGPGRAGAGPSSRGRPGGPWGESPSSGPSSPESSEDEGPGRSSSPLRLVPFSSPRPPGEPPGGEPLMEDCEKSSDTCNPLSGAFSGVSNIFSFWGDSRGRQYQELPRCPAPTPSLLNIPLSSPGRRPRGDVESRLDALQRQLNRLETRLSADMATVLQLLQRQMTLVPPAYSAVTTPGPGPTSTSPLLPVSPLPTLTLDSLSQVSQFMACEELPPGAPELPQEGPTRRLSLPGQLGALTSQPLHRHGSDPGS

Row | Structure (SMILES) | hERG current change (%, negative = inhibition) at 1uM
1 | CC1CN(S(=O)(=O)c2cccc(C(=O)OCCOc3ccccc3)c2)CC(C)O1 (centres unmarked) | 4.89%
2 | CC(C)(C)N/N=C/c1cc(Cl)cc([N+](=O)[O-])c1O.Cl | 7.41%
3 | O=C(CN1C(=O)c2ccccc2C1=O)OCC(=O)c1ccc(F)cc1 | 7.25%
4 | CC(C)Cc1cc(C(=O)Nc2ccc3c(c2)OCO3)no1 | 7.48%
5 | Cc1cccn2cc(-c3cccc(NC(=O)c4cccs4)c3)nc12 | 2.83%
6 | Cc1cc(C)cc(N2CCCn3c2nc2c3c(=O)[nH]c(=O)n2C)c1 | 11.8%
7 | O=C(Nc1ccc2oc(-c3cccnc3)nc2c1)c1ccc2c(c1)OCCO2 | 21.6%
8 | CCCCN(CCCC)C(=O)/C=C/c1cccc([N+](=O)[O-])c1 | -27.2%
9 | CCc1ccc(OCC(=O)Nc2ccncc2)cc1 | 12.4%
10 | CCN(CC)c1ccc(/C=N/NC(=O)Nc2ccccc2)cc1 | 9.97%
11 | CCOC(CNC(=O)c1cccn2c(=O)c3c(C)c(C)sc3nc12)OCC | -21.5%
12 | COc1ccc(CNC(=O)C2CC(c3ccccc3[N+](=O)[O-])=NO2)cc1 (centres unmarked) | -3.45%
13 | Cc1ccc(OCc2nc(C#N)c(NCc3ccc4c(c3)OCO4)o2)cc1 | 5.63%
14 | Cc1cc(C)c(S(=O)(=O)N2CCCC(C(=O)NCc3ccccn3)C2)c(C)c1 (centres unmarked) | 7.3%
15 | COC(=O)c1cc2ccccc2n1S(=O)(=O)c1ccccc1 | 8.3%
16 | CCOc1ccc(/C=C/C(=O)c2c(O)c3ccccc3oc2=O)cc1 | 2.24%
17 | CCCOP(=O)(c1ccc(N(C)C)cc1)C(O)c1ccc(Cl)cc1 (centres unmarked) | 14.9%
18 | OCCC1CN(Cc2cccc(OC3CCCC3)c2)CCN1Cc1ccsc1 (centres unmarked) | -15.4%
19 | CC(C)(Oc1ccc(-c2ccco2)cc1)C(=O)O | 8.94%
20 | CC(C)CNS(=O)(=O)c1ccc2c(c1)OCCO2 | -4.22%
21 | O=C(O)CCn1c(C(=O)O)cc2sccc21 | 15.2%
22 | N#CCC(=O)N1CCN(Cc2ccc3c(c2)OCO3)CC1 | 9.55%

Row | Structure (SMILES) | hERG current change (%, negative = inhibition) at 1uM
23 | Cc1oc2c(CN3CCCC3)c(O)ccc2c(=O)c1-c1ccccc1 | -11.7%
24 | O=C(Cc1cccs1)Nc1cccc(-c2nnc(-c3ccco3)o2)c1 | 14.5%
25 | CCC(CC)C(=O)N1N=C(c2ccc(NS(C)(=O)=O)cc2)CC1c1ccc(C)cc1 (centres unmarked) | 3.33%
26 | O=C(c1ccccc1F)N1CCN(C(=O)C2CC2)CC1 | 7.06%
27 | CC(Oc1ccccc1)C(=O)N1CCN(C(=O)C(C)Oc2ccccc2)CC1 (centres unmarked) | 13.6%
28 | Cc1cc(C)n2nc(C(=O)OCC(=O)NCc3ccc(Cl)cc3)nc2n1 | -0.25%
29 | CCN(CC)c1ccc2cc(-c3nc4ccccc4[nH]3)c(=O)oc2c1 | 16.2%
30 | CC(Sc1ccc2c(c1)OCCO2)C(=O)Nc1ncc(Cl)cc1Cl (centres unmarked) | 10.6%
31 | CCn1c(SCC(=O)Nc2nnc(C)s2)nnc1-c1ccco1 | -4.35%
32 | CCOC(=O)c1sc2cc([N+](=O)[O-])cc(SCC(=O)OC)c2c1N | -1.61%
33 | COc1ccc(NC(=O)/C=C/c2ccc(F)cc2)cn1 | 7.64%
34 | C/C(=N/NC(=O)c1cc(-c2cccc([N+](=O)[O-])c2)n[nH]1)c1cccc(O)c1 | 15.5%
35 | O=S(=O)(Nc1ccc(-n2cccc2)cc1)c1ccc(F)cc1 | 14%
36 | O=S(=O)(c1cccc(NC(=S)N2CCN(c3cccc(Cl)c3)CC2)c1)C(F)F | 3.04%
37 | Cc1cc(NC(C)c2ccccc2)n2ncc(-c3ccccc3)c2n1 (centres unmarked) | 14%
38 | O=C(c1ccc2ncsc2c1)N1CCCCC1 | 14.4%
39 | CCc1cc2c(NCc3ccco3)ncnc2s1.Cl | -0.964%
40 | CC(NC(=O)CSc1nnc2n1CCCCC2)c1ccccc1Cl (centres unmarked) | 4.87%
41 | CC(=O)c1sc(NC(=O)CCS(=O)(=O)c2ccc(C)cc2)nc1C | 12.8%
42 | COc1ccc(S(=O)(=O)NCC(=O)N(CC(=O)NCC2CCCO2)c2ccccc2C)cc1 (centres unmarked) | 3.46%
43 | CCOC(=O)CSc1n[nH]c(=S)s1 | 6.15%
44 | COc1ccc(C(=O)NNC(=O)C(C)NC(=O)c2ccccc2NC(=O)c2ccco2)cc1 (centres unmarked) | 19.3%
